Results published in the supplement of paper PMC3334620.
In all, about 33,000 sequences were measured (“E-score (-0.5 to 0.5)”: median about -0.012, highest 2% from about 0.29 on). This is one part of the list.

Molecular target: T1, Ybr033w (UniProt P38073)
T1 sequence: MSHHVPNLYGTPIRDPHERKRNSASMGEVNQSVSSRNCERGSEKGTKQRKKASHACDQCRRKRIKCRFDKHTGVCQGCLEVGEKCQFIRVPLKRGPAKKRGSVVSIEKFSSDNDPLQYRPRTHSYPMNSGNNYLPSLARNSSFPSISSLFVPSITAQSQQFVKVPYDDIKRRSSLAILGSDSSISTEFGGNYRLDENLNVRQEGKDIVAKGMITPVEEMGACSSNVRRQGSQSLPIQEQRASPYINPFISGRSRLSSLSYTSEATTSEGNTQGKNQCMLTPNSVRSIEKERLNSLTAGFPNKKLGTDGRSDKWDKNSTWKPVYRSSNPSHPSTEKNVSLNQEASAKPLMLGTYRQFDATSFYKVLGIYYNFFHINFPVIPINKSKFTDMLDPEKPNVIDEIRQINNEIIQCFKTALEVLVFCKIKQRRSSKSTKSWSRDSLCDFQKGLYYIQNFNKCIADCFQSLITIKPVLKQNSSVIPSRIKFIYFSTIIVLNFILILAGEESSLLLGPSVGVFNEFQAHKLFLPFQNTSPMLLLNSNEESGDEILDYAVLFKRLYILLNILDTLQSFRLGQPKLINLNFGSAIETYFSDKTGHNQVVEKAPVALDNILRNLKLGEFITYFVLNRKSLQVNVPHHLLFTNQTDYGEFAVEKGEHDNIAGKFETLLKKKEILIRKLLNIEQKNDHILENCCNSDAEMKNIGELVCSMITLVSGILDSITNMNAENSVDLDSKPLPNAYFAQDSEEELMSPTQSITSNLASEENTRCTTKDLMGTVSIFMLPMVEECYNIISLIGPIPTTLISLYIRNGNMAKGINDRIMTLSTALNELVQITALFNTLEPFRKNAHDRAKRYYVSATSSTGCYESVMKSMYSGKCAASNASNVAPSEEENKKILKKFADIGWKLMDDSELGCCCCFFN
Test: PBM E-score (8-mer binding enrichment) (E-score (-0.5 to 0.5)); higher = stronger / more preferred TF binding; most listed sequences are background and not binding sites
Settings: protein concentration: 200 nM; construct: GST-full length
Outline: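 E-scores (a modified Wilcoxon-Mann-Whitney statistic) were assigned by the Universal PBM Analysis Suite to every ungapped eight-base word pooled with its reverse complement. The input came from universal all-10-mer Agilent arrays made double-stranded by primer extension and probed with GST-tagged yeast transcription factors at about 100-200 nM. Fluorescent anti-GST detected bound protein, and masliner normalised the scans.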

Row | Sequence | PBM E-score
1 | CACGTAAC | -0.0872
2 | GCCGCTAC | -0.121
3 | AGTATGTG | 0.118
4 | TGTGAGAA | 0.0323
5 | ACGGGATC | 0.0182
6 | GAGAGTCA | -0.0369
7 | TCCACCCA | -0.209
8 | ATCAGCTC | 0.0196
9 | ATGTAGTA | 0.243
10 | GCACTGAA | 0.2
11 | TAAGTCTA | 0.019
12 | CTAACCCA | -0.159
13 | TGTTGAAA | 0.205
14 | CTTTAGGA | -0.0366
15 | CGGCCCCC | -0.425
16 | GGTTAACC | -0.0947
17 | AAGCGTCA | 0.0898
18 | GGCCGCCC | -0.348
19 | AACCTTTG | 0.0759
20 | AACATTCC | 0.0163
21 | CGATTCCA | -0.0329
22 | AGGTTACC | 0.0897
23 | CGAGGTTC | 0.0874
24 | ATGAAACC | 0.141
25 | AGTCCCAA | -0.122

Row | Sequence | PBM E-score
26 | AATTGTGA | 0.215
27 | CGGAGTTC | 0.0444
28 | AGTCTTAA | -0.0706
29 | CCATAACA | 0.132
30 | GTTGAGTA | 0.127
31 | ACCGCTCG | -0.0768
32 | CTAGCTAA | 0.064
33 | ATTGGGTC | -0.0771
34 | ATTTCTAA | 0.0907
35 | AGCGCGAC | 0.00346
36 | CCCAGAAC | -0.0921
37 | AATCCTAC | 0.0522
38 | ATTCGGCA | 0.0438
39 | AGTCCAGC | -0.114
40 | CATCAAGC | 0.0807
41 | TCGTATCA | 0.142
42 | GAGCGCAA | -0.0711
43 | GCGGGTTA | 0.0659
44 | CCGCGAGA | -0.255
45 | CGAGTCAC | -0.136
46 | CGTTTGAC | 0.0667
47 | AAATTATC | 0.418
48 | AGATTGAC | 0.0305
49 | GTGTAGGA | 0.0894
50 | GACGTAAC | 0.0557

Row | Sequence | PBM E-score
51 | GAAGGATA | 0.0784
52 | ACAGGCGC | -0.301
53 | AGCAGAAG | -0.0294
54 | CACGCGAA | -0.0782
55 | AATCTGCA | 0.00952
56 | CACAAGTG | -0.0893
57 | GTGTATGA | -0.114
58 | ACGGTTAA | 0.0249
59 | ATGATCGG | -0.0454
60 | ATTTATGA | 0.206
61 | ATCCTTTA | 0.176
62 | AGAGGTAT | 0.163
63 | CACTATCA | 0.101
64 | TCTTTGAA | 0.214
65 | GAACAAAA | 0.217
66 | AACCAAAA | 0.182
67 | CAGTTCAA | 0.0688
68 | CCCACATA | -0.0626
69 | ACCCAGGA | -0.0663
70 | ATTTCTAG | 0.241
71 | CCAGCACA | -0.0703
72 | CGCTCCGC | -0.132
73 | GTAGTGAA | 0.0398
74 | TAGGCTAA | 0.0975
75 | CCGAATAG | 0.0196

Row | Sequence | PBM E-score
76 | ACCTAGGC | -0.129
77 | CATCAGTC | -0.196
78 | ACGTGGAT | 0.00577
79 | ACCCCAAC | -0.0304
80 | ACGCAGTG | -0.224
81 | CCACACTC | -0.0722
82 | ACTCTGCT | -0.0237
83 | ATGCGAGC | -0.0162
84 | ATACAAAA | 0.311
85 | ACACTTTC | -0.0624
86 | GCACGTAC | -0.215
87 | ACAAAGAC | 0.0319
88 | CTCTAAGC | -0.00489
89 | GCTGTGTA | -0.00292
90 | CATAGGGA | 0.0585
91 | CCCCCTCA | -0.359
92 | AGTTACTC | 0.14
93 | ACTGTGTA | 0.0683
94 | ATATTTTG | 0.234
95 | ACGCTATA | -0.127
96 | CCTTTTAG | -0.0761
97 | AAATTGAC | 0.108
98 | ATATATAA | 0.332
99 | ATGTCTCA | 0.0261
100 | CCCGTATA | -0.0353

Row | Sequence | PBM E-score
101 | TCCTACGA | -0.156
102 | TTCCCGAA | 0.25
103 | AGTGGGGA | -0.155
104 | AAGCTCTC | -0.268
105 | ACATTATC | 0.219
106 | CTAGGCAG | -0.0666
107 | AATTCCTA | 0.223
108 | GAGTCACA | -0.0932
109 | ACACCGGT | -0.173
110 | ACATGGAA | -0.0243
111 | CCACAACA | 0.141
112 | CGACCAGC | -0.0522
113 | ACCGGGAT | -0.0699
114 | AGTCATAC | -0.0136
115 | ACCCTACG | -0.122
116 | CGTTCCGA | -0.0534
117 | GCACATCC | 0.015
118 | GGGAGGCA | -0.291
119 | ATCCTCTC | -0.0385
120 | GTCGCAAA | 0.142
121 | CGTACCCC | -0.105
122 | AGGCTGTA | 0.0666
123 | ACAAAGAT | 0.258
124 | ACAATATA | 0.264
125 | CTCCAGTA | 0.109

Row | Sequence | PBM E-score
126 | CTATGCAA | 0.0892
127 | CGCTCCTC | -0.284
128 | ACTGCCAT | 0.00233
129 | TAACCAGA | 0.0654
130 | ATGTACAA | 0.1
131 | ACGGTACC | -0.0481
132 | TAATTGAA | 0.0974
133 | CGAGATCG | -0.153
134 | GATCCCGC | 0.0311
135 | AATCCCAT | 0.0765
136 | CCAGCGCC | -0.136
137 | AGACGAAA | 0.0293
138 | AAGATGCA | 0.194
139 | CCGAGTCC | -0.136
140 | GGATACCC | -0.00499
141 | CGCGTCCA | -0.115
142 | CGCCTTTC | -0.182
143 | ATAAATGA | 0.213
144 | GCTTCTCA | -0.112
145 | CCGGTAGG | -0.127
146 | AACTACTC | 0.119
147 | CCTCGGGA | -0.162
148 | AGTCTTTC | -0.113
149 | CACTCGGC | -0.0886
150 | ATGCACCA | -0.00737

Row | Sequence | PBM E-score
151 | AACTTTAC | 0.238
152 | AAGCGAAT | 0.15
153 | CATAATAG | 0.134
154 | GTACCACA | 0.121
155 | CGGGCAAC | -0.234
156 | CGACCCGC | -0.195
157 | CCATATCA | 0.0559
158 | AGCTTCAT | 0.0861
159 | GTTTTTTA | 0.182
160 | ACGCCTGG | 0.00952
161 | CTTATAAA | 0.153
162 | CGCAAACA | 0.162
163 | CTCCTGTA | -0.0209
164 | CAAATAGC | 0.0702
165 | CAGTGGCC | -0.243
166 | CCCCTTGC | -0.284
167 | ACGACCGC | -0.0954
168 | ACGGAACG | 0.0187
169 | ACTAGTTA | 0.0573
170 | CCTAATAC | 0.149
171 | ATGGCTGC | -0.295
172 | GTCTAGTA | 0.131
